Values marked as one replicate rest on one cluster of the flow cell; about a third of the high ones do not repeat.

The data set deals with ATP. Put plainly: switch fluorescence ratio, 500 uM ATP over buffer (Cy3 cluster intensity, sum of 5 cycles each) (fold (ratio)); higher = stronger signal-on switching upon ATP binding; sequences stand for … in TCGTCGGCAGCGTCAGATGTGTATAAGAGACAGTTTTTTTTTTTTTTTTTTTTTTTTT…TC. Particulars: aptamer strand: ATP DNA aptamer (quencher-CACCTGGGGGAGTATTGCGGAGGAAGG + anchor), 100 nM annealed; ATP concentration: 500 uM; one replicate. In short, it runs like this:
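Cy3-labelled switching-strand clusters on a modified Illumina MiSeq flow-cell were annealed to 100 nM quencher-labelled ATP aptamer, imaged in selection buffer, then imaged after 15 min with 500 uM ATP at 22 °C. Five buffer/ATP cycles ran, with NaOH stripping and re-annealing between them. The fluorescence ratio is summed target-cycle over summed buffer-cycle Cy3 intensity per cluster, averaged per switch-domain sequence. Clusters outside 100-1000 RFU were excluded.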
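Note: ATP exposure 15 min at 22 °C before imaging.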

Consider CCTAGGTGTG, for which the switch fluorescence ratio is 1.37.

As to TTTTCTCGAA, the switch fluorescence ratio came out at 1.07.

Take AGAATCCACC: the switch fluorescence ratio is 1.05.

For the sequence GCCGAGGTGC, the switch fluorescence ratio stood at 1.2.

In the case of TTTTGCGCCT, the switch fluorescence ratio turned out to be 1.07.

For the sequence TGGAAATGCT, the switch fluorescence ratio was 1.04.

For the sequence CGAATGAGA, the switch fluorescence ratio is 1.01.

As to CAGATTGGAT, the switch fluorescence ratio is 0.967.

For the sequence GCATGTCCTC, the switch fluorescence ratio came to 1.04.

TGGCGCACAC: the switch fluorescence ratio came to 2.93.

With ATAGCATGAG, the switch fluorescence ratio came to 1.03.

On to ACAGAATGT, for which the switch fluorescence ratio worked out at 0.976.

For CTTTTTGCAC, the switch fluorescence ratio amounted to 0.988.

As to TTGAAGGGCT, the switch fluorescence ratio was found to be 1.

Consider TCGAGCTGGT, for which the switch fluorescence ratio is 0.983.

As to GCCTCAGGGG, the switch fluorescence ratio is 3.71.

Turning to TCGTTCAACG, the switch fluorescence ratio was determined as 0.936.

In the case of AGGATAGGCG, the switch fluorescence ratio was 0.906.

Consider GTCGTTCGAG, for which the switch fluorescence ratio came to 0.993.

Regarding CACAAGTCGG, the switch fluorescence ratio was found to be 0.988.

For GCCAATTCGG, the switch fluorescence ratio came to 0.916.

Take CCCCTAAGCC: the switch fluorescence ratio turned out to be 1.02.

As to ACTTGGAATA, the switch fluorescence ratio turned out to be 1.05.

Turning to CATAACGTCT, the switch fluorescence ratio stood at 1.05.

As for CCGGGGTGCC, the switch fluorescence ratio is 1.05.

As for TACCCGACT, the switch fluorescence ratio stood at 1.05.

In the case of AAGTATGAGA, the switch fluorescence ratio is 1.02.

As for CGGAGTATAG, the switch fluorescence ratio worked out at 1.73.

In the case of AAAGAAACAA, the switch fluorescence ratio is 0.975.

As to TGGTTGACGC, the switch fluorescence ratio came out at 1.08.

TGACCACTCT: the switch fluorescence ratio came out at 1.04.

Turning to TACCGCCAAG, the switch fluorescence ratio is 1.17.

In the case of TAGGAGTTGG, the switch fluorescence ratio worked out at 0.995.

For the sequence AACGCGGGC, the switch fluorescence ratio was 1.29.

Turning to ACCTAGGCC, the switch fluorescence ratio came out at 0.98.

For CGTTTATAT, the switch fluorescence ratio is 1.02.

On to AAGCCGTCTC, for which the switch fluorescence ratio came out at 1.06.

TAGGTGTAGC: the switch fluorescence ratio is 1.11.

TCAGTGCTCG: the switch fluorescence ratio was determined as 0.951.

For the sequence GCTCGAATCA, the switch fluorescence ratio was 0.968.

In the case of TGTATCTCAT, the switch fluorescence ratio turned out to be 1.

GCGATCGTAA: the switch fluorescence ratio came out at 1.05.

Take ACAGTTTGGT: the switch fluorescence ratio is 1.04.

For GAACAGCCAT, the switch fluorescence ratio was 1.07.

For CTTTTTCAGG, the switch fluorescence ratio came out at 1.04.

For the sequence TAAGTTGCAG, the switch fluorescence ratio turned out to be 0.995.

TATACCATGC: the switch fluorescence ratio is 1.04.

TTTTTACCAG: the switch fluorescence ratio was found to be 1.

Turning to ACGTAGTCGA, the switch fluorescence ratio amounted to 1.03.

As to ATATCAAGGT, the switch fluorescence ratio is 0.999.

Take GTCAACTATC: the switch fluorescence ratio came out at 1.01.

CATTGTAAAA: the switch fluorescence ratio was 0.97.

Regarding AACTTGTAT, the switch fluorescence ratio was determined as 1.01.

Take CTTCGCCAAA: the switch fluorescence ratio came out at 1.86.

On to GGCACAGCTG, for which the switch fluorescence ratio worked out at 1.04.

TGGATATCTC: the switch fluorescence ratio was 1.02.

As for TTCAGACTAA, the switch fluorescence ratio stood at 0.995.

Turning to TATTGGAGT, the switch fluorescence ratio was determined as 0.997.

In the case of ATAAAAATAC, the switch fluorescence ratio is 0.977.

As for GACTAGAGGT, the switch fluorescence ratio stood at 0.969.

Take GGTCAATTAA: the switch fluorescence ratio is 0.997.

Turning to TATTCAGAC, the switch fluorescence ratio amounted to 0.88.

Take GGATTCAAAT: the switch fluorescence ratio worked out at 1.01.

As to GACGGTAGAA, the switch fluorescence ratio came to 1.08.

As to GGATGATTAG, the switch fluorescence ratio is 1.02.

Take GTGATTTACG: the switch fluorescence ratio came to 0.987.

Regarding AGAAAACAGG, the switch fluorescence ratio worked out at 1.

CGTAGGCGAA: the switch fluorescence ratio came out at 0.97.

As to GAAGGCTGCT, the switch fluorescence ratio amounted to 1.04.

In the case of ATGTCAGTGG, the switch fluorescence ratio turned out to be 0.945.

As for AGAAGAAGTT, the switch fluorescence ratio came to 0.992.

As for GTTAAAGTAA, the switch fluorescence ratio was determined as 1.01.

On to CGGGACGGAT, for which the switch fluorescence ratio stood at 1.

With AAAAACGGA, the switch fluorescence ratio worked out at 0.93.

Regarding GTCTTGGCGA, the switch fluorescence ratio came to 1.05.

As for AAAACACT, the switch fluorescence ratio stood at 1.04.

For GCTTAGATAA, the switch fluorescence ratio came out at 1.01.

Take TGTACTCTCA: the switch fluorescence ratio turned out to be 1.01.

Regarding CTGGTTGGG, the switch fluorescence ratio came out at 1.01.

For the sequence TTACCGCACT, the switch fluorescence ratio was determined as 3.08.

In the case of ACCTGATAAT, the switch fluorescence ratio worked out at 1.03.

For TCCGTTCATG, the switch fluorescence ratio amounted to 1.06.

Consider TCCAGCCAGG, for which the switch fluorescence ratio amounted to 2.26.

In the case of CGAACATCCC, the switch fluorescence ratio was found to be 1.07.

As to CCGTAGTGGG, the switch fluorescence ratio is 1.96.

Regarding AAGAAGGGCG, the switch fluorescence ratio is 0.881.

On to ATTAGTCCTA, for which the switch fluorescence ratio stood at 1.02.

As for TACATGACCG, the switch fluorescence ratio was 1.1.

Consider TGGTAAACCA, for which the switch fluorescence ratio worked out at 1.12.

As for AATTAGCTCG, the switch fluorescence ratio was 1.

With TTAGGGCTGA, the switch fluorescence ratio was 1.

Take CGCCGTGTAC: the switch fluorescence ratio turned out to be 2.6.

Regarding GGGGTCGACC, the switch fluorescence ratio was 0.999.

On to AGATGGGAG, for which the switch fluorescence ratio was 0.955.

Turning to ATGTGATAG, the switch fluorescence ratio stood at 1.03.

As for CCCGTTTCAC, the switch fluorescence ratio was 1.18.

CCTGGGTAGG: the switch fluorescence ratio was found to be 1.02.

With TCTGGATTAA, the switch fluorescence ratio came to 0.955.

As for GGAATGTGTA, the switch fluorescence ratio came out at 0.96.

TCAGAGAATT: the switch fluorescence ratio was 1.03.

For GGTCATCTAC, the switch fluorescence ratio came to 0.987.

As for GCAGGAGCTG, the switch fluorescence ratio was determined as 0.997.

With GGGTGCTAT, the switch fluorescence ratio was 1.03.

With TCAGTTTCAT, the switch fluorescence ratio was 0.992.

Turning to AGCAGTAATT, the switch fluorescence ratio was determined as 1.01.

Turning to TAGGTCTGAA, the switch fluorescence ratio was 1.

In the case of CGGCTGCTTA, the switch fluorescence ratio amounted to 1.04.

For GATTCGGGG, the switch fluorescence ratio was found to be 1.01.

In the case of AGTTTACGA, the switch fluorescence ratio is 0.994.

With AGAATACGTT, the switch fluorescence ratio is 1.03.

With ATAGTGGCCA, the switch fluorescence ratio is 1.02.

On to AAGGAGCAG, for which the switch fluorescence ratio turned out to be 1.03.

For the sequence TATACGCGAT, the switch fluorescence ratio came to 2.9.

As for TGGCATTGGA, the switch fluorescence ratio is 0.968.

For TGGTCTATAC, the switch fluorescence ratio came out at 1.41.

Regarding TTATCAATAG, the switch fluorescence ratio came out at 1.03.

Turning to ATAATAAGGA, the switch fluorescence ratio was 1.02.

In the case of CATCACGACA, the switch fluorescence ratio was determined as 1.22.

Turning to AATCCTCCTT, the switch fluorescence ratio was 1.07.

For TATATGAGGA, the switch fluorescence ratio came out at 0.995.

For the origin of these results see the supplement of paper PMC10126150.
